Laboratory results taken from publication PMC4336329 (PLoS ONE, 2015).
Out of some 310,000 compounds screened, about 14,000 (4.5%) showed an effect of 50% or more. Effects have a minus sign here. The list shows a part of the results.

biological target: human ether-à-go-go-related gene (hERG) potassium channel (human, UniProt Q12809); assay: primary screen, population patch clamp on CHO cells stably expressing hERG
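Also: peak tail current of the secondary pulse compared with the same well before compound.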

human ether-à-go-go-related gene (hERG) potassium channel, sequence (Q12809 whole entry, looked up): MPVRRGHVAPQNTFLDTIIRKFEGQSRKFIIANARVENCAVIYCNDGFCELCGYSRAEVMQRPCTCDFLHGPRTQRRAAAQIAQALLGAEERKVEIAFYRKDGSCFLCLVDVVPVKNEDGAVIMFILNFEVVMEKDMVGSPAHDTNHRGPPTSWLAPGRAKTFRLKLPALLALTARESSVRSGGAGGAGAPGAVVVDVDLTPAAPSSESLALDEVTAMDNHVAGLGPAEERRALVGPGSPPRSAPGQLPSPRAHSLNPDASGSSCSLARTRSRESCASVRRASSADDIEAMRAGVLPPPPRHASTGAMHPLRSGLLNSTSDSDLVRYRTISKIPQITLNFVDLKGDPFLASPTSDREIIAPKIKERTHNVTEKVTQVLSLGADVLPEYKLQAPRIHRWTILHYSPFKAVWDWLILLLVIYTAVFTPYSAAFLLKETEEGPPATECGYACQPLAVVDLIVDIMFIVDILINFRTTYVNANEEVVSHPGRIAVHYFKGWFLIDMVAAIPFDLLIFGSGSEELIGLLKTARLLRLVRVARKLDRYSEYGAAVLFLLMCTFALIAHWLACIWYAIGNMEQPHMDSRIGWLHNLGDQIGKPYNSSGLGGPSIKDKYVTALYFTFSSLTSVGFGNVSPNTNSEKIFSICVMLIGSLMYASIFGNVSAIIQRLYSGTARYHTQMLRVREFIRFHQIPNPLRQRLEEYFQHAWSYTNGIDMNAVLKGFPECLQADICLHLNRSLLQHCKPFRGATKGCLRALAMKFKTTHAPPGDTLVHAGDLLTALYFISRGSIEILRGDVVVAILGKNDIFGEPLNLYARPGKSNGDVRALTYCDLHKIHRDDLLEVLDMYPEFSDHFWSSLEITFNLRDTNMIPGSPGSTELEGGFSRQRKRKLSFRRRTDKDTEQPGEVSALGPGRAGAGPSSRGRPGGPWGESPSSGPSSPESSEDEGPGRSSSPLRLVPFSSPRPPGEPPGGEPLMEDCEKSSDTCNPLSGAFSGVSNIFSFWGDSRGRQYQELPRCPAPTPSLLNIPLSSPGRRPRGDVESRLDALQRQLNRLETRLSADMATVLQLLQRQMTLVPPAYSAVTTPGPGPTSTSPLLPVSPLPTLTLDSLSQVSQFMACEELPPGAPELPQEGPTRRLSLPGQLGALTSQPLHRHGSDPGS

Structure (SMILES)	hERG current change (%, negative = inhibition) at 10uM
N/C(=N/OCC(=O)Nc1cccc2ccccc12)c1nonc1N	-14%
CC(C)(C)N(NC(=O)Nc1ccccc1)C(=O)c1ccccc1	12.9%
Cc1ccc(C)c(Oc2coc3cc(O)ccc3c2=O)c1	-24.1%
COc1cc(/C=N/NC(=O)C(=O)NCC2CCCO2)ccc1OCC(=O)N1CCOCC1 (centres unmarked)	21.5%
O=C1c2ccccc2C(=O)N1n1c(=O)[nH]c2ccccc2c1=O	14.9%
COc1nccnc1NS(=O)(=O)c1ccc(NC(=S)NC(=O)c2ccccc2)cc1	10.2%
Cc1c(C(=O)OCC(C)C)[nH]c2c1C(=O)CC(c1cccs1)C2 (centres unmarked)	14.9%
Cc1ccc(C(C)C)cc1OCC(=O)N/N=C/c1ccc2c(c1)OCCO2	-4.93%
Cc1ccc(CNC(=O)CCNS(=O)(=O)c2cccs2)cc1	-11.9%
COc1ccc(C(=O)NCCNC(C)=O)cc1S(=O)(=O)NCc1ccc(Cl)cc1	9.85%
CSc1ccc(Cl)c(C(=O)NCc2ccco2)c1	5.53%
O=C(Cc1ccc(Br)cc1)NCCc1ccc(F)cc1	11.3%
CC(NC(=S)NC1CCCCC1)c1ccc(C(C)(C)C)cc1 (centres unmarked)	10.6%
Cc1cc(Oc2ccc(Br)cc2)nc(SCC(=O)c2ccccc2)n1	1.53%
COc1ccc(NC(=O)Nc2ccccc2SC)c(OC)c1	25.7%
O=C(CCCN1C(=O)/C(=C/c2ccccc2Cl)SC1=S)Nc1cccnc1	-1.14%
COc1ccc(C(=O)Nc2nc3c(s2)Cc2cc(OC)ccc2-3)cc1	-7.05%
O=C(O)C1CCCCC1C(=O)OCCCCOC(=O)C1CCCCC1C(=O)O (centres unmarked)	5.59%
Cc1cc(N2CCCC2=O)ccc1S(=O)(=O)Nc1c(C)nn(C)c1C	12.3%
Cc1cc(-c2ccccc2)n2nc(C)c(C#N)c2n1	16.9%
O=C(Nc1ccc(Cl)c(C(F)(F)F)c1)C(=O)N1CCCCC1	-1.61%
O=C(C(=C1NCCN1)n1cncn1)c1ccccc1	14.4%
O=C(NCc1ccccc1)C1=C[C@H](c2ccc(Br)cc2)C[C@H](OCc2ccc(CO)cc2)O1	3.56%

Structure (SMILES)	hERG current change (%, negative = inhibition) at 10uM
COc1ccc(/C(O)=C2/C(=O)C(=O)N(Cc3cccnc3)C2c2ccncc2)cc1F (centres unmarked)	23.1%
COc1ccc(NC(=O)CCCNS(=O)(=O)c2cccs2)cc1	2.91%
O=C(CSc1nc2nccnc2c(=O)n1Cc1cccs1)Nc1ccccc1F	-69.1%
Nn1c(C2CCC2)nc2ccccc2c1=O	0.704%
Cc1ccc(-c2csc(N3CCN(c4cc5c(cc4Cl)nc(C)n5CCN4CCCCC4)CC3)n2)cc1	-6.33%
O=C1CCCC1C(=O)Nc1ccc2ccccc2c1 (centres unmarked)	9.48%
CCCCNC(=O)CSc1nc2cc3c(cc2c(=O)n1Cc1ccco1)OCO3	-10.8%
COc1nc(N(C)C)nc(N(C#N)CCOC(C)=O)n1	7.17%
C=CCOc1ccc(CN(C)CC(=O)Nc2ccc3c(c2)CCC3)cc1.O=C(O)C(=O)O	5.75%
O=C(Cn1cnc2ccccc21)Nc1cc(C(F)(F)F)ccc1N1CCOCC1	-17.7%
COc1ccc(-c2nc3n(n2)C(=O)CC(c2ccco2)S3)cc1 (centres unmarked)	1.61%
COc1ccc(C(=O)NCC(=O)N/N=C/c2cccc(OC(=O)c3ccco3)c2)cc1OC	21.6%
O=C(c1ccc(F)cc1)N(Cc1cccs1)C1CCS(=O)(=O)C1 (centres unmarked)	4.97%
Cn1nc([N+](=O)[O-])nc1N1CCN(c2ccc(F)cc2)CC1	-31.3%
O=C(Cn1cc([N+](=O)[O-])cn1)Nc1ccccn1	16.1%
Cc1ccc(NC(=O)[C@@H](NC(=O)N2C[C@H]3C[C@@H](C2)c2cccc(=O)n2C3)C(C)C)cc1	-0.363%
CCOCc1nnc(NC(=O)c2cc(OC)c(OC)cc2[N+](=O)[O-])s1	20.8%
Oc1ccccc1N1CCN(CC(O)COCc2ccccc2Cl)CC1 (centres unmarked)	-42%
O=C(Oc1ccc(F)c(F)c1)c1ccc2c(=O)n3c(nc2c1)CCC3	-5.07%
CCc1cc2c(=O)c(-c3ccon3)c(N)oc2cc1OC	2.34%
COc1ccc(N2CCN(C(=O)CSc3nnc(CNc4ccccc4)o3)CC2)cc1	-0.0447%
COc1ccc(OC(=O)C2CC(=O)N(c3ccc(C)cc3)C2)cc1 (centres unmarked)	-10.2%
C/C(=N\NC(=O)COc1ccccc1-c1ccccc1)c1cccnc1	-53.9%

Structure (SMILES)	hERG current change (%, negative = inhibition) at 10uM
O=C(O)c1cccc(NC(=S)NC(=O)c2cncc(Br)c2)c1	11.1%
CC1c2cc3c(cc2CCN1C(=O)c1ccc(Cl)cc1)OCCCO3 (centres unmarked)	-21.3%
Cc1cccc(OC(C)C(=O)Nc2ccc(N3CCCCC3)cc2)c1 (centres unmarked)	-9.07%
Cc1ccc(NC(=O)N2CCN(c3ccccn3)CC2)cc1	-1.45%
Cc1ccc(Cl)cc1N1CCN(S(=O)(=O)c2ccc3c(c2)NC(=O)C(C)C(=O)N3)CC1 (centres unmarked)	6.31%
CC(=O)Nc1ccc(S(=O)(=O)Nc2nccc(C3Cc4ccccc4C(=O)O3)n2)cc1 (centres unmarked)	7.05%
CC(C)=C1C2CCC1C1C(=O)N(c3ccc(C)c(C)c3)C(=O)C21 (centres unmarked)	3.55%
CN(C)c1ccc(N2C(=O)CC(Sc3ccccc3C(=O)O)C2=O)cc1 (centres unmarked)	-4.69%
CC(=O)c1sc2nc(=O)c(C)nn2c1C	-0.703%
c1ccc(-c2nn3c(-c4ccccc4)nnc3s2)cc1	19.5%
Cc1ccc(NC(=O)CSc2nnc(-c3ccco3)o2)cc1	2.91%
CC(C)(C)c1csc(NC(=O)c2ccccc2O)n1	-0.0514%
Cc1c(CN2CCCC(C)C2)c(O)n(CCO)c(=O)c1C#N (centres unmarked)	27.5%
CCCOc1ccccc1C1SCC(=O)Nc2c1c(=O)[nH]n2C(C)CCC (centres unmarked)	6.88%
Cc1ccccc1-c1nc2c3ccccc3nc(=S)n2[nH]1	17.8%
Cc1ccccc1Cn1c([N+](=O)[O-])cnc1C	-5.83%
CCN1CCCC1CNC(=O)c1ccc2c(=O)n(CCOC)c(=O)[nH]c2c1 (centres unmarked)	23.4%
CC1(C)CC2(CC(c3ccccc3F)c3ccc(O)c(O)c3O2)NC(=S)N1 (centres unmarked)	19.1%
O=C(O)C1C(c2ccccc2)C(C(=O)OCc2ccco2)C1c1ccccc1 (centres unmarked)	-6.52%
Cc1ccc2oc(-c3cccc(NC(=O)C4CCCO4)c3)nc2c1 (centres unmarked)	-32%
COC(=O)C1=C(NC(=O)COc2ccc3ccccc3c2)CCS1	17.1%
CC(C)(C)c1ccc(/C=N/NC(=O)C(=O)NCCCN2CCOCC2)cc1	-13.3%
CC1=C(C(=O)OCC(C)C)C(c2ccsc2)NC(=O)N1 (centres unmarked)	0.67%

Structure (SMILES)	hERG current change (%, negative = inhibition) at 10uM
CNC(=O)c1ccc(-c2cc(C(F)(F)F)nn2C)s1	17.6%
CCOC(=O)C1=C(C)C(c2ccccc2OC)NC(=S)N1 (centres unmarked)	-11.3%
O=C(N/N=C/c1c(Cl)cccc1Cl)c1cccc(F)c1	3.24%
Cc1ccnc(NC(=O)CCCc2c[nH]c3ccccc23)c1	7.77%
COc1ccc2c(c1)O[C@@H](c1cccc(C(F)(F)F)c1)[C@H](O)C2=O	-2.5%
CCOC(=O)c1sc(=NC(=O)c2ccc(C)c(C)c2)n(C)c1C	18.5%
CCC1=Nc2ccccc2NC2=C1C(=O)CCC2.Cl	-6.53%
CCc1ccc(OCc2n[nH]c(=S)n2C(C)CCCC(C)C)cc1 (centres unmarked)	14.1%
CC(C)c1ccc(S(=O)(=O)N2CCC3(CC2)OCCO3)cc1	15.6%
CCCS(=O)(=O)N1CCN(S(=O)(=O)c2ccc(F)cc2)CC1	10.6%
CCOc1ccccc1N1CCN(CC(=O)Nc2nnc(CC)s2)CC1	8.32%
Cn1c(=O)c2c(ncn2Cc2ccccc2)n(C)c1=O	-1.19%
O=C(NCc1ccc(Cl)cc1)c1ccc(COCC(F)(F)F)o1	-18.7%
O=C1C=C(c2ccccc2C(F)(F)F)C[C@@H](c2ccc3c(c2)OCO3)C1	-1.19%
COc1ccccc1CCNC(=O)c1cccc(S(=O)(=O)N2CCc3ccccc3C2)c1	-35.5%
COc1cc(C(=O)NCC(c2cccs2)N2CCc3ccccc32)cc(OC)c1OC (centres unmarked)	1.49%
CCN(CC)S(=O)(=O)c1ccc2oc(SCC(=O)NCc3ccccc3)nc2c1	-7.48%
CCOc1ccc(N(CC(=O)NCc2ccccc2OC)S(C)(=O)=O)cc1	-16.2%
O=c1[nH]c(=O)n(-c2ccccc2)c2c1C(C(F)(F)F)(C(F)(F)F)N=C(CCC1CCCCC1)N2	-3.44%
COc1ccc(-c2ccc(SCC(=O)c3cccs3)nn2)cc1	1.59%
